From the supplement of paper PMC4967469 come the findings set out here.

Lines with a small IC50 respond at low doses; where the fit passes the top or lowest dose, that dose stands as a limit. AUC is the area under the same curve over the 256-fold range up to the top dose, as a fraction; the more sensitive the line, the further below 1. Where the top dose is marked as inferred, it was calculated from the reported fits.

Compound in the experiment: C=CC(=O)Nc1cccc(Nc2nc(NC3CCC(N(C)C)CC3)nc3c2ncn3C(C)C)c1 [WZ3105]
Kind of experiment: Viability of human cancer cell lines after 72 h of drug (GDSC screen). As to conditions: top dose inferred. The method, then: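 Human cancer cell lines in 384-well plates, medium with 10% serum, drug for 72 h over a 256-fold dose range (nine 2-fold or five 4-fold steps up to the top dose). Adherent lines were fixed and stained with the nucleic acid dye Syto60, suspension lines read with resazurin; signal relative to control wells, capped at 0 and 100%. One two-parameter sigmoid per drug and line, fitted in a mixed model over all curves with the slope shared within a line.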

Regarding “HCC2157 (breast, suspension, top dose 1.28 µM)”, the AUC came to 0.334 and the IC50 (commonly the concentration needed to halve the response being measured) was 26.9 nM.

On to “HCC2218 (breast, suspension, top dose 10.24 µM)”, for which the AUC came out at 0.251 and the IC50 was 100 nM.

Take “HCC2998 (large intestine, adherent, top dose 10.24 µM)”: the AUC worked out at 0.44 and the IC50 worked out at 442 nM.

Regarding “HCC-15 (lung squamous cell carcinoma, adherent, top dose 1.28 µM)”, the AUC amounted to 0.865 and the IC50 is above 1280 nM.

Consider “HCC-33 (small cell lung carcinoma, adherent, top dose 1.28 µM)”, for which the AUC came to 0.639 and the IC50 is 195 nM.

In the case of “HCC-44 (lung adenocarcinoma, adherent, top dose 1.28 µM)”, the AUC is 0.699 and the IC50 amounted to 285 nM.

For “HCC-56 (large intestine, adherent, top dose 1.28 µM)”, the AUC came out at 0.871 and the IC50 is 1260 nM.

For the cell line “HCC-78 (lung adenocarcinoma, adherent, top dose 1.28 µM)”, the AUC was determined as 0.729 and the IC50 was determined as 406 nM.

As to “HCC-827 (lung adenocarcinoma, adherent, top dose 1.28 µM)”, the AUC was found to be 0.799 and the IC50 was determined as 721 nM.

“HCE-4 (oesophagus, adherent, top dose 1.28 µM)”: the AUC is 0.986 and the IC50 is above 1280 nM.

For the cell line “HCT-15 (large intestine, adherent, top dose 1.28 µM)”, the AUC stood at 0.987 and the IC50 is above 1280 nM.

For “HCT-116 (large intestine, adherent, top dose 1.28 µM)”, the AUC was found to be 0.668 and the IC50 turned out to be 228 nM.

As for “HD-MY-Z (Hodgkin lymphoma, adherent, top dose 1.28 µM)”, the AUC was 0.591 and the IC50 stood at 142 nM.

With “HDLM-2 (Hodgkin lymphoma, suspension, top dose 1.28 µM)”, the AUC turned out to be 0.87 and the IC50 is 1160 nM.

For “HDQ-P1 (breast, adherent, top dose 1.28 µM)”, the AUC came out at 0.949 and the IC50 is above 1280 nM.

As to “HEC-1 (endometrium, adherent, top dose 1.28 µM)”, the AUC was 0.984 and the IC50 is above 1280 nM.

In the case of “HEL (acute myeloid leukaemia, semi-adherent, top dose 1.28 µM)”, the AUC amounted to 0.94 and the IC50 is above 1280 nM.

In the case of “HGC-27 (stomach, adherent, top dose 1.28 µM)”, the AUC was 0.762 and the IC50 came out at 394 nM.

Turning to “HH (T-cell leukaemia, suspension, top dose 1.28 µM)”, the AUC came out at 0.547 and the IC50 stood at 112 nM.

As to “HL-60 (acute myeloid leukaemia, suspension, top dose 1.28 µM)”, the AUC was 0.578 and the IC50 is 128 nM.

In the case of HLE (liver, adherent, top dose 1.28 µM), the AUC came out at 0.964 and the IC50 is above 1280 nM.

On to “HMV-II (melanoma, adherent, top dose 1.28 µM)”, for which the AUC was 0.738 and the IC50 turned out to be 452 nM.

With “HN (head and neck, adherent, top dose 1.28 µM)”, the AUC amounted to 0.913 and the IC50 is above 1280 nM.

“HO-1-N-1 (head and neck, adherent, top dose 1.28 µM)”: the AUC was determined as 0.882 and the IC50 was 1160 nM.

As for “HO-1-u-1 (head and neck, adherent, top dose 1.28 µM)”, the AUC came to 0.909 and the IC50 is above 1280 nM.

As to “HOP-62 (lung adenocarcinoma, adherent, top dose 1.28 µM)”, the AUC worked out at 0.76 and the IC50 was found to be 449 nM.

On to “HOP-92 (large cell lung carcinoma, adherent, top dose 1.28 µM)”, for which the AUC turned out to be 0.972 and the IC50 was above 1280 nM.

On to “HOS (osteosarcoma, adherent, top dose 1.28 µM)”, for which the AUC is 0.992 and the IC50 is above 1280 nM.

“HPAC (pancreas, adherent, top dose 1.28 µM)”: the AUC is 0.726 and the IC50 worked out at 467 nM.

For “HPAF-II (pancreas, adherent, top dose 1.28 µM)”, the AUC stood at 0.696 and the IC50 came out at 340 nM.

For the cell line “HSC-2 (head and neck, adherent, top dose 1.28 µM)”, the AUC came out at 0.853 and the IC50 came to 886 nM.

For the cell line “HSC-3 (head and neck, adherent, top dose 1.28 µM)”, the AUC came out at 0.891 and the IC50 amounted to 1120 nM.

For the cell line “HSC-4 (head and neck, adherent, top dose 1.28 µM)”, the AUC came out at 0.864 and the IC50 is above 1280 nM.

For “HSC-39 (stomach, suspension, top dose 1.28 µM)”, the AUC was 0.908 and the IC50 was above 1280 nM.

“HT55 (large intestine, adherent, top dose 1.28 µM)”: the AUC worked out at 0.972 and the IC50 is above 1280 nM.

For the cell line “HT (B-cell lymphoma, suspension, top dose 1.28 µM)”, the AUC was found to be 0.64 and the IC50 was determined as 188 nM.

For “HT-3 (cervix, adherent, top dose 1.28 µM)”, the AUC was 0.839 and the IC50 stood at 891 nM.

Turning to “HT-29 (large intestine, adherent, top dose 1.28 µM)”, the AUC amounted to 0.752 and the IC50 amounted to 425 nM.

Consider “HT-115 (large intestine, adherent, top dose 1.28 µM)”, for which the AUC is 0.98 and the IC50 was above 1280 nM.

On to “HT-144 (melanoma, adherent, top dose 1.28 µM)”, for which the AUC worked out at 0.981 and the IC50 was above 1280 nM.

Turning to “HT-1080 (fibrosarcoma, adherent, top dose 1.28 µM)”, the AUC worked out at 0.969 and the IC50 is above 1280 nM.

As to “HT-1197 (bladder, adherent, top dose 1.28 µM)”, the AUC is 0.971 and the IC50 was above 1280 nM.

As to “HT-1376 (bladder, adherent, top dose 1.28 µM)”, the AUC turned out to be 0.985 and the IC50 is above 1280 nM.

“HTC-C3 (thyroid, adherent, top dose 1.28 µM)”: the AUC was 0.946 and the IC50 is above 1280 nM.

For the cell line “HUTU-80 (digestive system, adherent, top dose 1.28 µM)”, the AUC is 0.781 and the IC50 stood at 438 nM.

As to “HeLa (cervix, adherent, top dose 1.28 µM)”, the AUC turned out to be 0.977 and the IC50 was above 1280 nM.

“Hep 3B2_1-7 (liver, adherent, top dose 1.28 µM)”: the AUC came to 0.977 and the IC50 was above 1280 nM.

Turning to Hey (ovary, adherent, top dose 1.28 µM), the AUC is 0.82 and the IC50 stood at 683 nM.

On to “Hs633T (fibrosarcoma, adherent, top dose 1.28 µM)”, for which the AUC worked out at 0.989 and the IC50 was above 1280 nM.

Turning to “Hs683 (glioma, adherent, top dose 1.28 µM)”, the AUC amounted to 0.908 and the IC50 is above 1280 nM.

Regarding “Hs746T (stomach, adherent, top dose 1.28 µM)”, the AUC turned out to be 0.699 and the IC50 is 357 nM.

Consider “Hs766T (pancreas, adherent, top dose 1.28 µM)”, for which the AUC is 0.983 and the IC50 was above 1280 nM.

Regarding “Hs939-T (melanoma, adherent, top dose 1.28 µM)”, the AUC was 0.968 and the IC50 is above 1280 nM.

For “Hs940-T (melanoma, adherent, top dose 1.28 µM)”, the AUC amounted to 0.911 and the IC50 was above 1280 nM.

For the cell line “Hs-445 (Hodgkin lymphoma, suspension, top dose 1.28 µM)”, the AUC turned out to be 0.66 and the IC50 is 214 nM.

Regarding “Hs-578-T (breast, adherent, top dose 1.28 µM)”, the AUC amounted to 0.986 and the IC50 is above 1280 nM.

For the cell line “HuCCT1 (biliary tract, adherent, top dose 1.28 µM)”, the AUC worked out at 0.836 and the IC50 came to 987 nM.

For the cell line “HuH-7 (liver, adherent, top dose 1.28 µM)”, the AUC came to 0.97 and the IC50 is above 1280 nM.

“HuO9 (osteosarcoma, adherent, top dose 1.28 µM)”: the AUC was 0.753 and the IC50 amounted to 471 nM.

In the case of “HuO-3N1 (osteosarcoma, adherent, top dose 1.28 µM)”, the AUC was determined as 0.831 and the IC50 was 1190 nM.

Consider “HuP-T3 (pancreas, adherent, top dose 1.28 µM)”, for which the AUC came to 0.864 and the IC50 is above 1280 nM.

“HuP-T4 (pancreas, adherent, top dose 1.28 µM)”: the AUC came out at 0.573 and the IC50 amounted to 128 nM.

On to “IA-LM (large cell lung carcinoma, adherent, top dose 1.28 µM)”, for which the AUC stood at 0.788 and the IC50 amounted to 638 nM.

For “IGR-1 (melanoma, adherent, top dose 1.28 µM)”, the AUC worked out at 0.828 and the IC50 stood at 659 nM.

Regarding “IGR-37 (melanoma, adherent, top dose 1.28 µM)”, the AUC was determined as 0.989 and the 50% inhibitory concentration (IC50) is above 1280 nM.

As for “IHH-4 (thyroid, semi-adherent, top dose 1.28 µM)”, the AUC was determined as 0.787 and the IC50 stood at 442 nM.
